# Test results: PubChem BioAssay (NCATS)
# This list was built around the results that the source calls inconclusive (neither active nor inactive); the mix of calls is not that of the screen. Potencies of inconclusive entries are left out as doubtful fits. Calls of active or inactive are those of the source. Calls follow the shape of the dose curve; as a rule, active = well fitted curve in the direction sought with a large enough effect; inconclusive = small, poorly fitted or top-dose-only effect, or another doubt; inactive = no such curve, though single readings can be large; an effect the other way counts as inactive or inconclusive.
# Legend:
# [1] = BET inhibitor-based combinations targeting novel dependencies in MECOM-rearranged (r) AML: OCI-AML3 cell line (AID 2202232); details: CellTiter-Glo luminescence, 48 h; Potency: OCI-AML3 viability; viability (% of control): at 46 µM (top of the series); also: nearly all actives have a fitted effect of over 35% in size
# Outline: (§1)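 Cells were plated at 500 per well and exposed to an 11-point dose series of each drug for 48 hr. Viability was measured by CellTiter-Glo luminescence, normalized to DMSO and empty-well controls, and summarized as AUC and per-cell-line Z-AUC.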
# [2] = BET inhibitor-based combinations targeting novel dependencies in MECOM-rearranged (r) AML: HNT-34 cell line (AID 2202234); details: HNT-34 AML viability, CellTiter-Glo luminescence, 48 h; series mostly up to 46 µM; also: nearly all actives have a fitted effect of over 35% in size
# Outline: (§2)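 Activity is given as area under the curve and as Z-AUC, mean-centred within each cell line. It comes from 11-point dose curves normalized to DMSO and empty wells. CellTiter-Glo luminescence was read after 48 hr drug exposure of 500 cells/well.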
# [3] = BET inhibitor-based combinations targeting novel dependencies in MECOM-rearranged (r) AML: UCSD-AML1 cell line (AID 2202235); details: UCSD-AML1 AML cells viability, CellTiter-Glo, 48 h; viability (% of control): at 46 µM (top of the series); also: nearly all actives have a fitted effect of over 40% in size
# Outline: as §2
# [4] = BET inhibitor-based combinations targeting novel dependencies in MECOM-rearranged (r) AML: AML-194 cell line (AID 2202237; also: nearly all actives have a fitted effect of over 40% in size); details: AML-194 (MECOM-r AML) viability, CellTiter-Glo, 48 h; series mostly up to 46 µM
# Outline: as §1
# [5] = BET inhibitor-based combinations targeting novel dependencies in MECOM-rearranged (r) AML: AML-191 cell line (AID 2202236; also: nearly all actives have a fitted effect of over 35% in size); details: AML-191 viability, CellTiter-Glo luminescence, 48 h; series mostly up to 46 µM
# Outline: as §1
# Potency is read from the fitted curve at half-maximal effect; tags tell the direction and shape of the fitted curve.
SMILES,Potency [1],Potency [2],Potency [3],Potency [4],Potency [5]
O=c1c(O)c(-c2ccc(O)cc2O)oc2cc(O)cc(O)c12,inactive,inactive,"inconclusive [inhibitor, single point]",inactive,–
Cc1nc(NC(=O)N2CCCC2C(N)=O)sc1-c1ccnc(C(C)(C)C(F)(F)F)c1 (stereo not drawn),active: 2.63 µM,"inconclusive [inhibitor, partial curve]","inconclusive [inhibitor, partial curve]",–,"inconclusive [inhibitor, partial curve]"
C[C@H]1C[C@@H](n2c(Nc3ccc(OC(F)(F)F)cc3)nc3cc(CCC(=O)O)ccc32)CC(C)(C)C1,active: 20.9 µM,"inconclusive [inhibitor, single point]","inconclusive [inhibitor, single point]","inconclusive [inhibitor, single point]",active: 26.3 µM
Nc1nccc2c1ncn2[C@@H]1C=C(CO)[C@@H](O)[C@H]1O,"inconclusive [inhibitor, partial curve, poor fit]",active: 0.833 µM,"inconclusive [inhibitor, full curve]","inconclusive [inhibitor, full curve]","inconclusive [inhibitor, full curve]"
COc1cc2ncnc(Oc3cccc(NC(=O)Nc4cc(C(C)(C)C(F)(F)F)on4)c3)c2cc1OC,"inconclusive [inhibitor, full curve]",active: 0.209 µM,"inconclusive [inhibitor, full curve, poor fit]",–,"inconclusive [inhibitor, partial curve]"
CC[C@H](Nc1ncnc2nc[nH]c12)c1oc2ccccc2c(=O)c1-c1cccc(F)c1,"inconclusive [inhibitor, partial curve, poor fit]","inconclusive [inhibitor, partial curve]","inconclusive [inhibitor, partial curve]","inconclusive [inhibitor, single point]","inconclusive [inhibitor, single point]"
Cc1nc(C(=O)NCC(=O)O)c(O)c2ccc(Oc3ccccc3)cc12,"inconclusive [inhibitor, full curve, poor fit]","inconclusive [inhibitor, single point]",–,–,inactive
Cc1noc2c1-c1ccccc1C(c1ccc(Cl)cc1)=N[C@H]2CC(N)=O,active: 1.32 µM,active: 1.48 µM,"inconclusive [inhibitor, full curve]","inconclusive [inhibitor, full curve]","inconclusive [inhibitor, full curve]"
CO[C@H]1O[C@@H]2O[C@@]3(C)CC[C@H]4[C@H](C)CC[C@@H]([C@H]1C)[C@@]24OO3,"inconclusive [inhibitor, full curve]","inconclusive [inhibitor, single point]",inactive,"inconclusive [inhibitor, single point]",–
CC(C)C[C@H](CC(=O)O)C(=O)N[C@@H](Cc1c[nH]c2ccccc12)C(=O)N[C@@H](C)c1ccccc1,"inconclusive [inhibitor, partial curve, poor fit]","inconclusive [inhibitor, partial curve]","inconclusive [inhibitor, partial curve]",–,"inconclusive [inhibitor, partial curve]"
